According to article PMC4336329 (PLoS ONE, 2015):
In all, about 310,000 compounds went through this assay and about 14,000 (4.5%) showed an effect of 50% or more. The effect is printed as a negative number. The list shows a part of the results.

The compounds below were run against human ether-à-go-go-related gene (hERG) potassium channel (human, UniProt Q12809) (assay: primary screen, population patch clamp on CHO cells stably expressing hERG).
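Note: peak tail current of the secondary pulse compared with the same well before compound.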

human ether-à-go-go-related gene (hERG) potassium channel, sequence (Q12809 whole entry, looked up): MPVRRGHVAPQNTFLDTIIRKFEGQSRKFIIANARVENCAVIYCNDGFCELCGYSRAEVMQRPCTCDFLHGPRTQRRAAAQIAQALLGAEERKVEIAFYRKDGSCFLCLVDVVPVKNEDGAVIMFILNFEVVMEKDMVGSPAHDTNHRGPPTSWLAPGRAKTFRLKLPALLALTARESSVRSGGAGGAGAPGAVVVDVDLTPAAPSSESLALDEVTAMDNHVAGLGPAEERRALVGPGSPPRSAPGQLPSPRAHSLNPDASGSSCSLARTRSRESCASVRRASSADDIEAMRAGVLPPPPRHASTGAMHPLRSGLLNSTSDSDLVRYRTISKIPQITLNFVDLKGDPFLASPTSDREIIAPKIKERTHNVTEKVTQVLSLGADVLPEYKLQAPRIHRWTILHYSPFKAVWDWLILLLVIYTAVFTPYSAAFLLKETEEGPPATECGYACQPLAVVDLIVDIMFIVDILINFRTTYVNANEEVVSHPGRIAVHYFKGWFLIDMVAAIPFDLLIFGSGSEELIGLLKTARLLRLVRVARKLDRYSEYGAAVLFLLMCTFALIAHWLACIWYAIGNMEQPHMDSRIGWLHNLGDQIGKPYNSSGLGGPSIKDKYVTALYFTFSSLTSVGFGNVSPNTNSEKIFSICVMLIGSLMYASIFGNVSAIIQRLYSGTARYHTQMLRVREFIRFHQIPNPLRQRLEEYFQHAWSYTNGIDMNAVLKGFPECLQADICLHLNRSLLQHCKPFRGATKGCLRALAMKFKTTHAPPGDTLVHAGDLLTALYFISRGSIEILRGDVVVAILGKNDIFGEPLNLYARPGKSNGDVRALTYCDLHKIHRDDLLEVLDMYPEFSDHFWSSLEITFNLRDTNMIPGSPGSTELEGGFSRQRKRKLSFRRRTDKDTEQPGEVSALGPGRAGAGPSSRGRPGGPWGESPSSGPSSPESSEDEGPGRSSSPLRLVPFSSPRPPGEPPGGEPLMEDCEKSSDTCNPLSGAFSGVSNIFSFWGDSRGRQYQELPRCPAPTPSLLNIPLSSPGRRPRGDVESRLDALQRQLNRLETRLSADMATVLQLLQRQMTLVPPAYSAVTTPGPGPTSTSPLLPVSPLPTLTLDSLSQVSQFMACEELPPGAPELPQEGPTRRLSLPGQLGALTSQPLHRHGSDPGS

SMILES | hERG current change (%, negative = inhibition) at 10uM [%]
COCCn1c(SCc2ccc(F)cc2)nc2c1c(=O)[nH]c(=O)n2C | -6.83
CCCS(=O)(=O)N1CCCC(C(=O)NCCCN(C)Cc2ccccc2)C1 (stereo not shown) | 8.12
COC(=O)c1ccc(NC(=O)c2cnc3scc(C)n3c2=O)cc1 | -14.8
CCOc1ccc(CC(=O)NNC(=S)Nc2ccccc2)cc1Br | 7.82
O=C(NCC(c1ccco1)N1CCN(c2ccc(F)cc2)CC1)c1ccc2c(c1)OCO2 (stereo not shown) | 4.55
O=c1[nH]c2ccccc2n1CCCOc1ccccc1 | 4.34
CCS(=O)(=O)Nc1cccc(C2=NN(S(=O)(=O)c3ccc(C)cc3)C(c3ccco3)C2)c1 (stereo not shown) | 12.9
CC1=C(C(=O)OC2CCCCC2)C(c2ccc(F)cc2)NC(=O)N1 (stereo not shown) | -12
C=CCN(C(=O)CCC(=O)Nc1cc(C)on1)C(C(=O)NC1CCCC1)c1ccc(OC)c(OC)c1 (stereo not shown) | 15.4
O=C(CN1CCN(c2ccccc2F)CC1)N1CCc2ccccc21 | 2.97
COc1ccc(-c2c(C#N)sc(C(N)=O)c2-c2ccc(OC)cc2)cc1 | 4.84
CCOc1ccc(NC(=O)CN(C)C(=O)CCNC(=O)c2ccccc2Cl)cc1OCC | 0.127
Cc1cc(N2CCOCC2)nc2ccc(NC(=S)NCCN(C)C)cc12 | 13.7
COc1ccc(-c2nnc(SC(C)C(=O)Nc3c(C)n(C)n(-c4ccccc4)c3=O)o2)cc1 (stereo not shown) | 14.6
Cc1nc(-c2ccccc2)c(Cc2ccccc2O)c(=O)[nH]1 | 17.2
COC(=O)N/N=C/c1cn(Cc2ccc(F)cc2)c2ccccc12 | 5.67
CCOC(=O)c1cc2sccc2n1Cc1ccccc1 | 1.89
COC(=O)C(Cc1ccccc1)P(=O)(c1ccccc1)c1ccccc1 (stereo not shown) | -6.24
COC(=O)c1cc(OC)c(OC)cc1NC(=O)Nc1ccccc1OC | 4.31
COc1ccc(OCc2cc(C(=O)NCCN3CCCC(O)C3)no2)c(Cl)c1 (stereo not shown) | -28.5
CC1=C/C(=N\N=C2\NC(=O)C(CC(=O)Nc3ccccc3)S2)CC(C)(C)C1 (stereo not shown) | 6.79
CCN(CC)c1ccc(/C=C(/C#N)c2nc3ccc(C)cc3[nH]2)c(OC(C)C)c1 | 23.9

SMILES | hERG current change (%, negative = inhibition) at 10uM [%]
COc1cc(CO)ccc1Oc1nc2ccccc2n2cnnc12 | 10.7
NC(=O)N=Nc1c(O)[nH]c2ccc([N+](=O)[O-])cc12 | 45.3
CC(C)CN(C(=O)COC(=O)Cc1n[nH]c(=O)c2ccccc12)C1CCS(=O)(=O)C1 (stereo not shown) | 10.6
O=C(O)c1ccc(COc2ccc3c4c(c(=O)oc3c2)CCC4)o1 | 21.4
O=S(=O)(N/N=C/c1ccc2c(c1)OCO2)c1ccc(Br)cc1 | 5.05
CN(C)C(CNC(=O)c1ccc(S(=O)(=O)Nc2ccccc2)cc1)c1ccco1 (stereo not shown) | 9.68
Cc1[nH]c2ccccc2c1C1C(c2ccccc2)=NN=C(C(C)C)N1O (stereo not shown) | 1.39
CS(=O)(=O)N(Cc1ccc(C(=O)NCCSc2ccccn2)cc1)c1ccccc1 | 2.06
CN=C(Nc1cc(Cl)ccc1Cl)SC1CC(=O)N(c2ccc(C(=O)OC)cc2)C1=O (stereo not shown) | 9.69
O=C(NNC(=S)Nc1ccccc1)c1ccccc1[N+](=O)[O-] | 26.2
CCC(C)(c1ccc(C=O)s1)c1ccc(C=O)s1 | -39.4
CCn1c(=O)cc(OCC(=O)NCC2CCCO2)c2ccccc21 (stereo not shown) | 20
Nc1cc(=O)[nH]c(SCC(=O)Nc2cc([N+](=O)[O-])ccc2Cl)n1 | 26
CCOC(=O)C1CCN(C(=O)CSc2nc(N)cc(=O)[nH]2)CC1 | 19
COc1cc(OC)c(C2C3=C(CCCC3=O)Nc3nc4ccccc4n32)cc1OC (stereo not shown) | 4.1
C/C(=C\C(=O)c1ccccc1)NNc1nc2ccccc2s1 | -1.63
CCN(CC)C(=O)c1c2c(nc3ccccc13)-c1ccccc1CC2 | -12.6
COc1ccc(NCc2nnc(SCC(=O)Nc3ccc(OC)cc3)n2C)cc1 | -62.3
COc1ccc(/C(O)=C2/C(=O)C(=O)N(CCN3CCOCC3)C2c2ccc(C)cc2)cc1 (stereo not shown) | -14.1
Cc1ccc(CS(=O)Cc2ccc(C(=O)N3CCN(c4ccccc4)CC3)o2)cc1 (stereo not shown) | -14.8
CN(C)CCCNCCCCNC(=O)/C=N/O | 0.266
